Reference: PubChem BioAssay AID2546 (National Center for Advancing Translational Sciences (NCATS), 2010)
Out of some 310,000 compounds screened, about 11,000 (3.5%) were called active. Inconclusive means that the source gave no clear call. Such entries were picked first, then a sample of the others. Calls follow the shape of the dose curve; as a rule, active = well fitted inhibition curve with a large enough effect; inconclusive = small, poorly fitted or top-dose-only effect, or effect the other way; inactive = flat fitted curve, though single readings scatter. No potency is given beside an inconclusive call; the fits are too rough.

assay: VP16 counterscreen qHTS for inhibitors of ROR gamma transcriptional activity; details: Drosophila S2 Gal4-VP16 UAS-luciferase, luminescence, 20 h; activity, negative = inhibition: at 53.6 µM (top of the series);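 also: Gal4-VP16 expression switched on by copper sulfate through the metallothionein promoter; nearly all actives have a fitted effect of over 50% in size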
% is scaled to controls: 0 for no effect and ±100 for the full control effect; potency is read from the fitted curve at half-maximal effect; tags tell the direction and shape of the fitted curve.

Row | Compound | Potency | activity, negative = inhibition
1 | Cc1cc(NC(=O)c2ccccc2Cl)ccc1NC(=O)c1ccccc1Cl | inconclusive [activator, single point] | –
2 | CC(=O)Nc1cccc(C(=O)/C=C/c2ccco2)c1 | inconclusive [inhibitor, single point] | –
3 | CC1(C)CC(=O)C2=C(C1)N(CCN1CCOCC1)C1=C(C(=O)CC(C)(C)C1)C2c1ccc(Cl)cc1 | – | inactive: 1.9%
4 | Cc1ccc(C2CCN(C(=S)NC3CCCCC3)C2)cc1 (configuration not stated) | inconclusive [inhibitor, single point] | –
5 | O=C(C1=C(O)C(=O)N(CC2CCCO2)C1c1cccc(O)c1)c1ccco1 (configuration not stated) | – | inactive: -6.91%
6 | CCOc1ccc(-c2c(C(=O)N/N=C/c3ccc(OC)cc3)nnn2-c2nonc2N)cc1 | inconclusive [inhibitor, single point] | –
7 | Cc1cc(C)n(-c2nc(SCCN(C)C)c3c4c(sc3n2)COC(C)(C)C4)n1 | active: 7.08 µM | –
8 | CCOc1ccc(CCNC(=O)Nc2ccccc2)cc1OCC | – | inactive: 6.47%
9 | CCN(CC)S(=O)(=O)c1ccc(C(=O)Nc2nnc(COC)o2)cc1 | active: 15.8 µM | –
10 | Cc1cccc(NC(=O)Nc2cccc(C#N)c2)n1 | – | inactive: 5.34%
11 | O=C1c2ccccc2C(=O)C1(CO)c1ccc(OC(F)F)cc1 | inconclusive [inhibitor, single point] | –
12 | COc1ccc2cc(CN(CC3CCCO3)C(=O)Nc3ccccc3OC)c(=O)[nH]c2c1 (configuration not stated) | – | inactive: -0.374%
13 | NC(=O)c1ccc(/C=N/O)[n+](Cc2ccccc2)c1 | – | inactive: 3.48%
14 | O=C(c1ccccc1)N1CCN(c2nc3ccc([N+](=O)[O-])cc3s2)CC1 | active: 8.91 µM | –
15 | CCOc1ccc(OCCn2c(=S)[nH]c3ccccc32)cc1 | active: 5.01 µM | –
16 | COc1cccc(NC(=O)Nc2cccs2)c1 | active: 5.01 µM | –
17 | CC(C)CN1C=C2C(=O)C(C)(OC(=O)CCc3ccccc3)C(=O)C=C2C=C1c1ccc(C#N)cc1 (configuration not stated) | – | inactive: -3.97%
18 | COC(=O)c1cccc(NC(=O)CSCc2ccccc2)c1 | inconclusive [activator, single point] | –
19 | CCOC(=O)N1CCC(NC(=O)c2oc3c(c2C)-c2[nH]ncc2CC3)CC1 | – | inactive: 7.33%
20 | COc1ccc(/C=C2\SC(=S)N(CC(=O)OCC(=O)Nc3ccc(C)cc3Cl)C2=O)cc1 | – | inactive: 6.36%
21 | COc1cc(OC)c(C(=O)OCCCOC(=O)c2cc(OC)c(OC)cc2OC)cc1OC | active: 10 µM | –
22 | CCOC(=O)N1CCN(S(=O)(=O)c2ccc(C(=O)Nc3nnc(CSC)o3)cc2)CC1 | inconclusive [inhibitor, single point] | –
23 | COc1ccc(NC(=O)c2ccc(-c3nn(C)c(=O)c4ccccc34)cc2)cc1 | – | inactive: -2.99%
24 | COc1ccc(C23CC4CC(CC(C4)C2)C3)cc1C(=O)NCCN(C)C | inconclusive [inhibitor, single point] | –
25 | COc1cc(NC(=O)c2ccccc2)c(OC)cc1NC(=O)Cc1ccccc1 | – | inactive: -4.59%
26 | CCn1c(=O)c(C(=O)NNC(=O)c2ccccc2)c(O)c2ccccc21 | inconclusive [inhibitor, single point] | –

Row | Compound | Potency | activity, negative = inhibition
27 | S=C(Nc1cccc(Cl)c1)N(CCCN1CCCC1)Cc1cccn1Cc1ccc(Cl)cc1 | inconclusive [inhibitor, single point] | –
28 | O=[N+]([O-])c1ccc(NNS(=O)(=O)c2cc(Cl)ccc2Cl)nc1 | inconclusive [inhibitor, single point] | –
29 | COc1cc(/C=N/NC(N)=S)ccc1OCc1ccc(C)cc1 | active: 8.91 µM | –
30 | Cn1c(-c2cc(Br)ccc2O)n[nH]c1=S | inconclusive [inhibitor, single point] | –
31 | NNc1nc(-c2ccccc2Cl)c2cc(Br)ccc2n1 | inconclusive [inhibitor, partial curve, poor fit] | –
32 | COc1ccc(C2(c3ccc(OC)cc3)NC(=O)N(CC(=O)Nc3ccc(OC)c(OC)c3)C2=O)cc1 | – | inactive: -17.7%
33 | CC1CCN(C(=S)c2cn(Cc3cccc(F)c3)c3ccccc23)CC1 | inconclusive [inhibitor, single point] | –
34 | COc1cccc(Nc2nc(CN3CCOCC3)nc3sc4c(c23)CCCC4)c1 | inconclusive [inhibitor, single point] | –
35 | CCn1c(=O)cc(SCC(=O)NCCCN2CCN(c3ccccc3F)CC2)c2ccccc21 | – | inactive: -7.35%
36 | CCc1ccc(C(=O)Nc2cc3c(cc2Cl)OCCCO3)cc1 | inconclusive [inhibitor, full curve, poor fit] | –
37 | CC(=O)N(CCC1(C(C)C)CCOC(C)(C)C1)Cc1ccco1 (configuration not stated) | inconclusive [activator, single point] | –
38 | COc1ccccc1OC(=O)c1cc(Cl)nc2ccccc12 | – | inactive: -3.55% [at 0.365 µM]
39 | Oc1ccc(Br)cc1C=Nc1ccc2[nH]ncc2c1 | inconclusive [inhibitor, single point] | –
40 | CSc1ncccc1C(=O)Nc1ccc(S(=O)(=O)Nc2nccs2)cc1 | – | inactive: 0.0955%
41 | CCN(CC(=O)NCCC1=CCCCC1)S(=O)(=O)c1ccccc1 | – | inactive: 1.39%
42 | COc1ccc(/C=C2/SC(=S)NC2=O)cc1OCc1ccccc1 | active: 17.8 µM | –
43 | Cc1ccc(NC(=S)N(C)Cc2cn(C)c3ccccc23)cc1 | inconclusive [inhibitor, single point] | –
44 | COc1cc(CO)cc(Br)c1OCC(=O)N1CCCCC1 | inconclusive [inhibitor, full curve, poor fit] | –
45 | Cc1cc(-c2ccccc2)nc(N/N=C/c2ccco2)n1 | inconclusive [inhibitor, single point] | –
46 | CC(=O)Nc1ccccc1OCCOc1ccc(Br)cc1 | inconclusive [inhibitor, single point] | –
47 | CCOc1ccc(NC(=O)Cc2cccc3ccccc23)c([N+](=O)[O-])c1 | inconclusive [inhibitor, single point] | –
48 | Cc1cc(C)c2c(=O)n(CC(=O)Nc3cccc(F)c3)sc2n1 | inconclusive [inhibitor, single point] | –
49 | O=S(=O)(c1ccccc1)c1cnc(-c2cccnc2)nc1-c1ccc(Cl)cc1Cl | inconclusive [inhibitor, single point] | –
50 | COc1ccc(-n2c(-c3cc(-c4ccccc4)sc3N)n[nH]c2=S)cc1 | inconclusive [inhibitor, partial curve] | –
51 | S=C(NCCSCc1ccc(Cl)cc1Cl)Nc1ccccc1 | active: 3.98 µM | –
52 | Cc1ccc(-c2nnn(CC(=O)N(Cc3cccs3)C(C(=O)NC3CCCC3)c3ccco3)n2)o1 (configuration not stated) | inconclusive [inhibitor, single point] | –

Row | Compound | Potency | activity, negative = inhibition
53 | CCOc1ncccc1C(=O)OCC(=O)Nc1ccc(-c2nc3ccc(C)cc3s2)cc1 | inconclusive [inhibitor, single point] | –
54 | Cc1ccc(-c2csc(NNC(=O)c3ccccc3)n2)cc1 | active: 7.08 µM | –
55 | COCCn1cnc2c1c(=O)[nH]c(=O)n2Cc1ccccc1 | – | inactive: -0.681%
56 | Cc1ccc(CNC(=O)c2ccc(Cn3cc(-c4ccc(C)cc4)nc3-c3ccncc3)cc2)cc1 | inconclusive [inhibitor, single point] | –
57 | O=C(O)[C@H](Cc1ccccc1)NC(=O)N1CCN(c2ccc(F)cc2)CC1 | – | inactive: -2.72%
58 | NC(=O)CC(NC(=O)Cc1ccc(Br)cc1)c1ccc(NCc2ccc(F)c(F)c2)c([N+](=O)[O-])c1 (configuration not stated) | – | inactive: -1.72%
59 | O=C(NCc1ccccc1)C(c1ccccc1)N(C(=O)c1csnn1)c1ccccc1 (configuration not stated) | – | inactive: 5.38%
60 | COC(=O)c1ccc(NC(=S)NCCc2ccccc2C)cc1 | active: 14.1 µM | –
61 | c1cc(C2CCN(Cc3nc(-c4ccc5c(c4)OCO5)no3)CC2)ccn1 | inconclusive [inhibitor, single point] | –
62 | CCC(=O)Nc1ccc2c(c1)nc1n2CCN(CCOC)C1 | – | inactive: 9.65%
63 | O=C(Cc1ccc(Cl)cc1)Nc1ccc(-c2nnc(-c3ccco3)o2)cc1 | inconclusive [inhibitor, single point] | –
64 | CCC(=O)n1nc(-c2ccc(Cl)cc2)nc1NCc1ccccc1 | – | inactive: 11.5%
65 | COc1ccc(C(=O)NC(=S)NCc2ccccc2)cc1 | active: 22.4 µM | –
66 | Cc1cccc(Cc2nnc(CCC(=O)N(C)CCc3ccccc3)o2)c1 | inconclusive [activator, single point] | –
67 | CCc1cccc(C)c1NC(=O)CSc1nnc(C)o1 | – | inactive: -9.41%
68 | c1ccc(-c2nc(-c3ccccn3)no2)cc1 | active: 2 µM | –
69 | CC1=NN(c2ccccc2)C(=O)/C1=C\c1ccc(Oc2ccc([N+](=O)[O-])cc2[N+](=O)[O-])cc1 | inconclusive [inhibitor, single point] | –
70 | O=c1cc(O)c2sc3nc(-c4ccccc4)cc(C(F)(F)F)c3c2[nH]1 | inconclusive [inhibitor, partial curve, poor fit] | –
71 | COc1ccc(C(=O)CSc2nnc3ccc(-c4ccccn4)nn23)cc1 | – | inactive: -13.9% [at 10 µM]
72 | O=c1[nH]n(CCO)c(=O)c2cccnc12 | – | inactive: 3.86%
73 | CO/N=C(\C)CCN1CCCCc2nc(C)c(C)cc21 | – | inactive: 5.92% [at 10 µM]
74 | O=C(N/N=C/c1c[nH]c2ccccc12)c1ccccc1Cl | – | inactive: 29.6%
75 | CN1CCN(S(=O)(=O)c2ccc(Cl)s2)CC1 | – | inactive: -5.96%
76 | Cc1ccc(C(=O)NN2C(=O)/C(=C/c3cccn3C)SC2=S)cc1 | inconclusive [inhibitor, single point] | –
77 | O=C(CC1SCCNC1=O)Nc1ccc(Cl)c(Cl)c1 (configuration not stated) | inconclusive [activator, full curve, poor fit] | –
